Results are given in words; binding and its absence hold for the method and conditions named. Binding seen in cells or lysates may run through a third protein. Some entries that bind do so weakly or less than the wild type. For part of these data: Where a sequence is shown, tags or fusion partners need not be part of it.
Key:
Assay in all cases: pull-down; coexpression from compatible Duet vectors in E. coli, complexes extracted from membranes with detergent, affinity copurification on a HisTrap/Ni column with one His-tagged protein as bait; eluate labeled with fluorescent ampicillin when PBPs were present, SDS-PAGE, fluorescence imaging, Coomassie staining, immunoblot
HisFtsW (E. coli) = target: T1, HisFtsW (E. coli) (UniProt P0ABG4)
T1 sequence: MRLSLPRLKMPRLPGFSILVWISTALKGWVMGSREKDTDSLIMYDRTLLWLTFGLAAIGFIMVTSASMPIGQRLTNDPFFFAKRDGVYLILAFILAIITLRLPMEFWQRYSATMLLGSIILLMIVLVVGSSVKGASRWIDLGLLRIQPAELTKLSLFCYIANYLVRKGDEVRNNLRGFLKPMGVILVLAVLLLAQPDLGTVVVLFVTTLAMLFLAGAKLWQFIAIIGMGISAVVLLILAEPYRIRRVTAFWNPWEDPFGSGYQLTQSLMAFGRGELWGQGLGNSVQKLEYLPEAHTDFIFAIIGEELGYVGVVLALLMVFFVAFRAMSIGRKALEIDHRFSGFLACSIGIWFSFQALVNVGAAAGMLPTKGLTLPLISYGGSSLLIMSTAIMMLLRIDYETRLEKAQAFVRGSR

Sequences of proteins named here, by UniProt entry; tags and fusion partners are left off.
UniProt P06136: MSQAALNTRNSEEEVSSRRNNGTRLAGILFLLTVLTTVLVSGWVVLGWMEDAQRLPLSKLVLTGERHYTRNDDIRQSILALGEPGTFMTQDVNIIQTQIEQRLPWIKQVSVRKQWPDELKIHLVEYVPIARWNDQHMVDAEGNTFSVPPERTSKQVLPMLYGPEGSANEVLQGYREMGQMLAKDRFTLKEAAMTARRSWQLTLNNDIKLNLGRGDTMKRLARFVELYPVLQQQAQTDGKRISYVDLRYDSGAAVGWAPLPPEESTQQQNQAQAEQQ

HisFtsBL (E. coli) = target: T2, HisFtsBL (E. coli) (UniProt P0A6S5+P0AEN4)
T2 sequence 1: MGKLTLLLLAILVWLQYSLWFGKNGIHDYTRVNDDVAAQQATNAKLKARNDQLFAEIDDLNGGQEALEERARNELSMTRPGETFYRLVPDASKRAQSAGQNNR
T2 sequence 2: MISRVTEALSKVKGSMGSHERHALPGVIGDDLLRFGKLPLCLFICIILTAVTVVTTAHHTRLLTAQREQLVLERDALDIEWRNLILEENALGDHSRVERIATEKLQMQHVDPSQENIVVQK

HisFtsQ (E. coli) = HisFtsQ (E. coli) (UniProt P06136)
[1] = target: HisFtsBLQ complex (His-FtsB, FtsL, FtsQ) (E. coli) (UniProt P0A6S5+P0AEN4+P06136)
PBP1b (E. coli) = target: T3, PBP1b (E. coli) (UniProt P02919)
T3 sequence (chain, fluorescent ampicillin label added after elution): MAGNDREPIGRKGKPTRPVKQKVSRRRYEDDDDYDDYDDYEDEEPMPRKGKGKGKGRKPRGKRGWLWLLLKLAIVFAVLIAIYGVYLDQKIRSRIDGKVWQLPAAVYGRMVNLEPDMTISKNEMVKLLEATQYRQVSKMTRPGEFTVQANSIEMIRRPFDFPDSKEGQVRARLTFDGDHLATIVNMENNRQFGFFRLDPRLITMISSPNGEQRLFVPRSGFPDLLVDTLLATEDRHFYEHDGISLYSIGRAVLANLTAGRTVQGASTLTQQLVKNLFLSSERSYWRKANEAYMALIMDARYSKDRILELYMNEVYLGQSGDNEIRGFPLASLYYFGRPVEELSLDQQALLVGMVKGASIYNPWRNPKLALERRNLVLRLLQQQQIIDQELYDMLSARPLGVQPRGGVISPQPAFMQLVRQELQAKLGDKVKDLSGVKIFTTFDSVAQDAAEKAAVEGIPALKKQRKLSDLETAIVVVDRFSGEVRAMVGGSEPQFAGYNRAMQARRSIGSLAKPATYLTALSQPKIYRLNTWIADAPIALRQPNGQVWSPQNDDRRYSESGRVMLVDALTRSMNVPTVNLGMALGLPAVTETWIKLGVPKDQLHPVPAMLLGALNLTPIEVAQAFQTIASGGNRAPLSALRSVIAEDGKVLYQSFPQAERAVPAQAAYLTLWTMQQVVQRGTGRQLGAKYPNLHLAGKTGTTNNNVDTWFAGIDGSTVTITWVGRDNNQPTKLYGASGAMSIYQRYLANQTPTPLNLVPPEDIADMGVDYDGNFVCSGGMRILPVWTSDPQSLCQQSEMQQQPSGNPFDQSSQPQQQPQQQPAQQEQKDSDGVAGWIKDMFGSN

His-FtsB (E. coli) = target: T4, His-FtsB (E. coli) (UniProt P0A6S5)
T4 sequence: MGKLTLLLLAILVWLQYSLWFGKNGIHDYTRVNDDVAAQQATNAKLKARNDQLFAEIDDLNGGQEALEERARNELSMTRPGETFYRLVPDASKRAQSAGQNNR

B1: endogenous PBP3 (enzyme, UniProt P0AD68 1-577)
chain: MKAAAKTQKPKRQEEHANFISWRFALLCGCILLALAFLLGRVAWLQVISPDMLVKEGDMRSLRVQQVSTSRGMITDRSGRPLAVSVPVKAIWADPKEVHDAGGISVGDRWKALANALNIPLDQLSARINANPKGRFIYLARQVNPDMADYIKKLKLPGIHLREESRRYYPSGEVTAHLIGFTNVDSQGIEGVEKSFDKWLTGQPGERIVRKDRYGRVIEDISSTDSQAAHNLALSIDERLQALVYRELNNAVAFNKAESGSAVLVDVNTGEVLAMANSPSYNPNNLSGTPKEAMRNRTITDVFEPGSTVKPMVVMTALQRGVVRENSVLNTIPYRINGHEIKDVARYSELTLTGVLQKSSNVGVSKLALAMPSSALVDTYSRFGLGKATNLGLVGERSGLYPQKQRWSDIERATFSFGYGLMVTPLQLARVYATIGSYGIYRPLSITKVDPPVPGERVFPESIVRTVVHMMESVALPGGGGVKAAIKGYRIAIKTGTAKKVGPDGRYINKYIAYTAGVAPASQPRFALVVVINDPQAGKYYGGAVSAPVFGAIMGGVLRTMNIEPDALTTGDKNEFV
modifications: fluorescent ampicillin label added after elution
HisFtsW (E. coli)
  binding: binds
HisFtsBL (E. coli)
  binding: no binding
HisFtsQ (E. coli)
  binding: no binding
[1]
  binding: binds

B2: PBP1b (enzyme, UniProt P02919 1-844)
chain: MAGNDREPIGRKGKPTRPVKQKVSRRRYEDDDDYDDYDDYEDEEPMPRKGKGKGKGRKPRGKRGWLWLLLKLAIVFAVLIAIYGVYLDQKIRSRIDGKVWQLPAAVYGRMVNLEPDMTISKNEMVKLLEATQYRQVSKMTRPGEFTVQANSIEMIRRPFDFPDSKEGQVRARLTFDGDHLATIVNMENNRQFGFFRLDPRLITMISSPNGEQRLFVPRSGFPDLLVDTLLATEDRHFYEHDGISLYSIGRAVLANLTAGRTVQGASTLTQQLVKNLFLSSERSYWRKANEAYMALIMDARYSKDRILELYMNEVYLGQSGDNEIRGFPLASLYYFGRPVEELSLDQQALLVGMVKGASIYNPWRNPKLALERRNLVLRLLQQQQIIDQELYDMLSARPLGVQPRGGVISPQPAFMQLVRQELQAKLGDKVKDLSGVKIFTTFDSVAQDAAEKAAVEGIPALKKQRKLSDLETAIVVVDRFSGEVRAMVGGSEPQFAGYNRAMQARRSIGSLAKPATYLTALSQPKIYRLNTWIADAPIALRQPNGQVWSPQNDDRRYSESGRVMLVDALTRSMNVPTVNLGMALGLPAVTETWIKLGVPKDQLHPVPAMLLGALNLTPIEVAQAFQTIASGGNRAPLSALRSVIAEDGKVLYQSFPQAERAVPAQAAYLTLWTMQQVVQRGTGRQLGAKYPNLHLAGKTGTTNNNVDTWFAGIDGSTVTITWVGRDNNQPTKLYGASGAMSIYQRYLANQTPTPLNLVPPEDIADMGVDYDGNFVCSGGMRILPVWTSDPQSLCQQSEMQQQPSGNPFDQSSQPQQQPQQQPAQQEQKDSDGVAGWIKDMFGSN
modifications: fluorescent ampicillin label added after elution
HisFtsW (E. coli)
  binding: binds
HisFtsBL (E. coli)
  binding: binds
HisFtsQ (E. coli)
  binding: binds
[1]
  binding: binds

B3: FtsN (protein, UniProt P29131 1-319)
chain: MAQRDYVRRSQPAPSRRKKSTSRKKQRNLPAVSPAMVAIAAAVLVTFIGGLYFITHHKKEESETLQSQKVTGNGLPPKPEERWRYIKELESRQPGVRAPTEPSAGGEVKTPEQLTPEQRQLLEQMQADMRQQPTQLVEVPWNEQTPEQRQQTLQRQRQAQQLAEQQRLAQQSRTTEQSWQQQTRTSQAAPVQAQPRQSKPASSQQPYQDLLQTPAHTTAQSKPQQAAPVARAADAPKPTAEKKDERRWMVQCGSFRGAEQAETVRAQLAFEGFDSKITTNNGWNRVVIGPVKGKENADSTLNRLKMAGHTNCIRLAAGG
HisFtsW (E. coli)
  binding: binds
PBP1b (E. coli)
  binding: binds

B4: FtsL^D93A (protein, UniProt P0AEN4 1-121)
chain: MISRVTEALSKVKGSMGSHERHALPGVIGDDLLRFGKLPLCLFICIILTAVTVVTTAHHTRLLTAQREQLVLERDALDIEWRNLILEENALGAHSRVERIATEKLQMQHVDPSQENIVVQK
His-FtsB (E. coli)
  binding: binds

B5: PBP3 (untagged, overexpressed) (enzyme, UniProt P0AD68 1-577)
chain: MKAAAKTQKPKRQEEHANFISWRFALLCGCILLALAFLLGRVAWLQVISPDMLVKEGDMRSLRVQQVSTSRGMITDRSGRPLAVSVPVKAIWADPKEVHDAGGISVGDRWKALANALNIPLDQLSARINANPKGRFIYLARQVNPDMADYIKKLKLPGIHLREESRRYYPSGEVTAHLIGFTNVDSQGIEGVEKSFDKWLTGQPGERIVRKDRYGRVIEDISSTDSQAAHNLALSIDERLQALVYRELNNAVAFNKAESGSAVLVDVNTGEVLAMANSPSYNPNNLSGTPKEAMRNRTITDVFEPGSTVKPMVVMTALQRGVVRENSVLNTIPYRINGHEIKDVARYSELTLTGVLQKSSNVGVSKLALAMPSSALVDTYSRFGLGKATNLGLVGERSGLYPQKQRWSDIERATFSFGYGLMVTPLQLARVYATIGSYGIYRPLSITKVDPPVPGERVFPESIVRTVVHMMESVALPGGGGVKAAIKGYRIAIKTGTAKKVGPDGRYINKYIAYTAGVAPASQPRFALVVVINDPQAGKYYGGAVSAPVFGAIMGGVLRTMNIEPDALTTGDKNEFV
modifications: fluorescent ampicillin label added after elution
HisFtsW (E. coli)
  binding: binds
[1]
  binding: binds weakly

B6: StrepFtsW (protein, UniProt P0ABG4 1-414)
chain: MRLSLPRLKMPRLPGFSILVWISTALKGWVMGSREKDTDSLIMYDRTLLWLTFGLAAIGFIMVTSASMPIGQRLTNDPFFFAKRDGVYLILAFILAIITLRLPMEFWQRYSATMLLGSIILLMIVLVVGSSVKGASRWIDLGLLRIQPAELTKLSLFCYIANYLVRKGDEVRNNLRGFLKPMGVILVLAVLLLAQPDLGTVVVLFVTTLAMLFLAGAKLWQFIAIIGMGISAVVLLILAEPYRIRRVTAFWNPWEDPFGSGYQLTQSLMAFGRGELWGQGLGNSVQKLEYLPEAHTDFIFAIIGEELGYVGVVLALLMVFFVAFRAMSIGRKALEIDHRFSGFLACSIGIWFSFQALVNVGAAAGMLPTKGLTLPLISYGGSSLLIMSTAIMMLLRIDYETRLEKAQAFVRGSR
[1]
  binding: binds

B7: FtsW (untagged) (protein, UniProt P0ABG4 1-414)
chain: MRLSLPRLKMPRLPGFSILVWISTALKGWVMGSREKDTDSLIMYDRTLLWLTFGLAAIGFIMVTSASMPIGQRLTNDPFFFAKRDGVYLILAFILAIITLRLPMEFWQRYSATMLLGSIILLMIVLVVGSSVKGASRWIDLGLLRIQPAELTKLSLFCYIANYLVRKGDEVRNNLRGFLKPMGVILVLAVLLLAQPDLGTVVVLFVTTLAMLFLAGAKLWQFIAIIGMGISAVVLLILAEPYRIRRVTAFWNPWEDPFGSGYQLTQSLMAFGRGELWGQGLGNSVQKLEYLPEAHTDFIFAIIGEELGYVGVVLALLMVFFVAFRAMSIGRKALEIDHRFSGFLACSIGIWFSFQALVNVGAAAGMLPTKGLTLPLISYGGSSLLIMSTAIMMLLRIDYETRLEKAQAFVRGSR
[1]
  binding: binds

Source: article PMC6325244
